± gives the standard deviation of the averaged measurements. Some of the results follow.
Tested on: PfAP2-G AP2 domain (GST-tagged)
Experiment: gcPBM binding intensity (ln(normalized median fluorescence intensity)); higher = stronger DNA binding
Outline: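 The binding buffer was 1× PBS containing 1% milk, 0.2 mg/ml BSA, 0.5% salmon testes DNA and 0.03% Triton X-100. In it, GST-tagged P. falciparum DNA-binding domains expressed in E. coli were applied for 1 h to an Agilent 4 × 180k array of primer-extended double-stranded 36-bp intergenic genomic probes plus negative controls. Binding intensity, read with Alexa488 anti-GST antibody and a 488 nm scan, is the highest Masliner-normalised natural-log median intensity across replicate spots of either probe orientation.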

| Sequence | gcPBM binding intensity (ln) |
| --- | --- |
| TTAGGACAAAAAAAAATAAAAATAAAATAAAATAAT [CACACA_negctrl_site1613] | 9.95 ± 0.21 |
| ATATAAACATGTTTGTGTACGTAATATGAAAAATAA [XGTACX_site8157] | 11.7 ± 1 |
| GTATGTATAATATACACACTCACAAGCATTCAAATA [CACACA_site267] | 9.88 ± 0.057 |
| TTGTTTTTAAGAAAAACACACACTCCTGTTATTTTA [CACACA_site9230] | 9.785 ± 0.049 |
| AAATATTATACAAAAAAAAAAAAAAAAAAAATATAT [CACACA_negctrl_site52] | 9.61 ± 0.26 |
| ATTTTGTATATATTTTGTACATATTTTGTATATATT [XGTACX_site885] | 10.8 ± 0.42 |
| ATATAATAATTGTACACATGCACACACAAATATTAT [TGCATGCA_site204] | 11.5 ± 0.95 |
| ATTTTTAATCATTTACAACCTAGTGATTATACAAAT [CACACA_negctrl_site1089] | 10 ± 0.21 |
| CGTATGCGTATATACACACCCACGTATATATATAAA [CACACA_site3200] | 10.4 ± 0.28 |
| ATAGCCAAAAATCATGCACACCTAAAAAAAAAAAAA [CACACA_site8826] | 10.1 ± 0.6 |
| TATATTTATGTATATGTGCACATAAATTTAAGAATG [GTGCAC_site9512] | 10.5 ± 0.33 |
| AAGAGAGACATCAACACACATACGTATGTATAGAAA [CACACA_site1397] | 10.12 ± 0.021 |
| TTTTTTATTGTGATACGTATATTATTTTATGATTAA [GTGCAC_negctrl_site202] | 10.6 ± 0.35 |
| GTATATATATTTGTACGTACATATTGTTGTAAACAC [XGTACX_site8833] | 11.7 ± 0.71 |
| TTCATTTTAATAATATGTACATAATATATTTAAAAA [XGTACX_site634] | 11.3 ± 0.92 |
| TTAAGTCATAAATAAAGTACATAAATATAATATATA [XGTACX_site6304] | 11.2 ± 0.86 |
| ATGTAAATGTTATTATGTACATATTTATTCTTCAAA [XGTACX_site7377] | 11.1 ± 0.54 |
| TCCAATTAAATATATGAACACACATGTGAACTTTCT [CACACA_site9318] | 9.965 ± 0.064 |
| GGGGGTAGGGGAAGAAGTACAATGATCACTACAGTA [XGTACX_site1169] | 11.9 ± 1.3 |
| TTTTTTATTAAAAGCGAAAAAAATGAAAACTTTTTT [GTGCAC_negctrl_site605] | 9.895 ± 0.035 |
| TGTATATAGAAACATACACACATATTAATTTTACAT [CACACA_site3126] | 9.885 ± 0.092 |
| TTTTTAATTAACTTTGTAAACTTATATATATATATA [TGCATGCA_negctrl_site311] | 9.99 ± 0.21 |
| TTAAAGCACCCATGCACACACACAAGGGAAAAGAAA [CACACA_site4289] | 10.3 ± 0.4 |

| Sequence | gcPBM binding intensity (ln) |
| --- | --- |
| AAGGAATATTAAGTGGGTACTAAAAAAAAATTAATT [XGTACX_site331] | 11.1 ± 0.76 |
| GAAGTAGATGGAAAAGTGCACTGTAATGGTTATATT | 10.3 ± 0.26 |
| TTTATTGAACGTACACATATATATATGTATATATTT [TGCATGCA_negctrl_site141] | 11.3 ± 0.88 |
| ATATTTATATGGTTTGCACACATAACAACTATGGTT [CACACA_site3631] | 10.06 ± 0.049 |
| ATATAACATATCAATTGTACGTATTGATAATATATA [XGTACX_site2504] | 11.3 ± 0.98 |
| TTTTGTTTTAATTTTATTTGATTTTATTTGATTTAT [CACACA_negctrl_site692] | 9.595 ± 0.007 |
| AGGCACACAAACATATGTACACATATATATATATAT [XGTACX_site4723] | 11.4 ± 0.95 |
| TTATTTTTTTTATATATATGTATAAATATATATATA [XGTACX_negctrl_site441] | 9.85 ± 0.2 |
| CCACTAATAAATATTACACACATATAGATTTATATT [CACACA_site7465] | 9.97 ± 0.13 |
| TCAATCATCTTATATAGTACACATAAAAGTATTATA [XGTACX_site8513] | 11.3 ± 0.81 |
| GACAAAATGATAGGGACACACAATATCAATGTTTAA [CACACA_site765] | 10.7 ± 0.51 |
| AAAAAAAAAAATCCAGTGCATATATTTTTTACATAT | 9.62 ± 0.22 |
| ATTACATTAATAAGAGTGCATTATATAAGTTTTATG | 10.03 ± 0.064 |
| TTTTGTTATTAGAGGGTGCTTATAATGAACTCCTAC | 10.2 ± 0.34 |
| CAAAAGGATATGCACACACACACACGGATATTTATA [CACACA_site7099] | 10.2 ± 0.15 |
| CGTATATATATATACACACACATATATATATGTAAA [CACACA_site195] | 9.99 ± 0.099 |
| TATTTCCATTCATAATTTTGTAGAATATATAACCGT [CACACA_negctrl_site1531] | 9.93 ± 0.17 |
| AAAAACTTAATATTCACACATATATATATATATATA [CACACA_site5240] | 9.96 ± 0.49 |
| AAAAAAAAAAATTACACACATACATATAATAATAAT [CACACA_site2193] | 9.85 ± 0.014 |
| TAATTTATGAGTAATACACACACTTGTGGATATATT [CACACA_site3790] | 10.1 ± 0.13 |
| TTTTATTATTAATTTCTTTTTTCTCATCACTTTCAA [XGTACX_negctrl_site117] | 9.785 ± 0.007 |
| TTTACAAAAAATTATACACACACGTACATATAAATA [CACACA_site945] | 11.3 ± 0.76 |
| ATATATATAAAATATACACACATACTGTTCATTTAA [CACACA_site6149] | 9.97 ± 0.057 |

| Sequence | gcPBM binding intensity (ln) |
| --- | --- |
| TACGTTCTAATATATACACACCTGGTATTAATTATG [CACACA_site5260] | 10.125 ± 0.007 |
| GAAAAATTTTTATATGTGCACATGTTATATATAATT [GTGCAC_site9742] | 10.6 ± 0.3 |
| AAATATTATTTATTTACACACCAATCTTCTTTTCTT [CACACA_site3990] | 9.91 ± 0.11 |
| AAAGAATACAAAATTGCACACATATTGTGAAAATGT [CACACA_site9327] | 9.96 ± 0.12 |
| TATTAACACAATAGCGCACACTTTTAATATTTTATA [CACACA_site1617] | 10.2 ± 0.2 |
| ATATAATGTTGTAATAGTACTTTTTTCATATAAATA [XGTACX_site2666] | 11.1 ± 0.66 |
| CTTAAATTGAAATGTTGTACAAAGTAAAAACAATGA [XGTACX_site2123] | 11.2 ± 0.86 |
| TTCGGAAAAATTAAAGCACACAAAAAAAAATAAAAA [CACACA_site8296] | 10.1 ± 0.14 |
| GATTAACAACATATTAGTACATATATTATATATATA [XGTACX_site7646] | 11 ± 0.76 |
| GACTATAATGTTTTGGTGCGTCATGTTATGGTCATC | 10.4 ± 0.29 |
| TATAAACCTTTTTGCACGCACACAAAAAAAAAATAA [CACACA_site168] | 10.6 ± 0.52 |
| AAACATATATACATATGTACATATATACATATATGT [XGTACX_site5779] | 11.4 ± 0.54 |
| ATACACATTCTTCCGACATAATAAGAAAAAGAAAAA [CACACA_negctrl_site9] | 9.97 ± 0.33 |
| AAAATGTATTCTCTCATGCACACTTTCTTTAAGGGA [CACACA_site2196] | 10.04 ± 0.092 |
| TGTAGATTTTGTAACACACACATATAAATACCTATA [CACACA_site7183] | 10.2 ± 0.16 |
| TTATTTATATTTTTTTGTACACATATTGTATACATA [XGTACX_site1178] | 11.5 ± 0.86 |
| CATATTTTATTATATACATGCAATTTTAATATATAT [TGCATGCA_site544] | 9.96 ± 0.18 |
| CACCCCCACAGACACACACACACACCGATATATATA [CACACA_site8010] | 11 ± 0.58 |
| TATAATTTAACGACATGTACATATAAAAAAATATTT [XGTACX_site2395] | 11.3 ± 0.61 |
| AAATATAATAACGAACGTACTTATTATAATTTGTAA [XGTACX_site2342] | 10.9 ± 0.45 |
| ATCTCTTATATATTCACACACATATATATAATTATA [CACACA_site1502] | 10.08 ± 0.071 |
| TACATGAATATTTATACATGCACACTAAAATAAAGA [TGCATGCA_site611] | 10.06 ± 0.035 |
| TATTTACATACAAAATGTACAAAAATATATTTTTTT [XGTACX_site888] | 10.6 ± 0.35 |

| Sequence | gcPBM binding intensity (ln) |
| --- | --- |
| ATATATATTTAATGTTGTACATAAAAAATATATAAA [XGTACX_site7774] | 11.3 ± 1 |
| TATTTATATATATGATGTACATAAGGTGTAATGTTA [XGTACX_site5591] | 11.2 ± 0.62 |
| AAATAATACAAGGGCTGTACATAAAAAGGAGTATAT [XGTACX_site839] | 11.3 ± 0.52 |
| ATTTTAAAAAGGATAGTGCAAATGTTAAAATAGGAC | 10.5 ± 0.26 |
| ATAGGTAAAAAGTATACACACGTTGACACATTCTTT [CACACA_site4794] | 10.21 ± 0.064 |
| AGAAAAAAAAAAAGTACACACATATAACATATAGAT [CACACA_site7410] | 11.6 ± 0.86 |
| ATTTATTTTCTGTGTACACATATGTTGGGTATTTTA [CACACA_site5902] | 11.7 ± 0.96 |
| GTATATATCCCAAAATGTACATAATTTATTATTTAT [XGTACX_site2842] | 11 ± 0.28 |
| GGTCTTTTTTTCAAAAGTACATAAATAAAAAAGGTT [XGTACX_site2894] | 11.6 ± 1.1 |
| TTGTATGTAAAAAAGTGTACATGAGTGATTATATAA [XGTACX_site8166] | 11.3 ± 0.69 |
| TAAATTTAAAAATCTGCACACATTTAAAAAAAAAAA [CACACA_site2515] | 10 ± 0.26 |
| ATTACTAAAAAATATAAACACACATATATTTTACAT [CACACA_site8633] | 9.84 ± 0.085 |
| CAAAAGGATGTGGGATGTACATATGAAAAAAAAAAA [XGTACX_site8059] | 11.1 ± 0.57 |
| TTTTATTTATAATACTCACACATTTATATTACATAT [CACACA_site6000] | 10.2 ± 0.17 |
| CTTTTTTTCTTTCCAAGTACTAAATTCATACAAATT [XGTACX_site2605] | 10.8 ± 0.51 |
| AATAAAATAATAAAAGCACACAAGAATACACCCAAA [CACACA_site7919] | 10.6 ± 0.45 |
| TTTAACGAATAAAAATGTACAAATTTATACATTTAT [XGTACX_site2805] | 10.7 ± 0.43 |
| GAAAATTTAAAAAGAGTGCATTATATGTTTGAATAT [GTGCAC_site9564] | 9.93 ± 0.11 |
| ATTTCTAAATGTTGGTGTACGTTTTTTTATAACCTT [XGTACX_site1752] | 11.6 ± 1.1 |
| AGTGTATGTATATAAACACACATACATATTTATAAC [CACACA_site6777] | 9.915 ± 0.021 |
| AAAAAAAAGAAAGAAAGTACAAATTATAAAATGAAC [XGTACX_site860] | 11 ± 0.61 |
